Reference: paper PMC4336329 (PLoS ONE, 2015)
Among all 310,000 compounds or so, about 2,200 (0.71%) showed an effect of 50% or more. The effect is printed as a negative number. This is one part of the list.

target: human ether-à-go-go-related gene (hERG) potassium channel (human, UniProt Q12809); assay: primary screen, population patch clamp on CHO cells stably expressing hERG
Sequence (Q12809 whole entry, looked up): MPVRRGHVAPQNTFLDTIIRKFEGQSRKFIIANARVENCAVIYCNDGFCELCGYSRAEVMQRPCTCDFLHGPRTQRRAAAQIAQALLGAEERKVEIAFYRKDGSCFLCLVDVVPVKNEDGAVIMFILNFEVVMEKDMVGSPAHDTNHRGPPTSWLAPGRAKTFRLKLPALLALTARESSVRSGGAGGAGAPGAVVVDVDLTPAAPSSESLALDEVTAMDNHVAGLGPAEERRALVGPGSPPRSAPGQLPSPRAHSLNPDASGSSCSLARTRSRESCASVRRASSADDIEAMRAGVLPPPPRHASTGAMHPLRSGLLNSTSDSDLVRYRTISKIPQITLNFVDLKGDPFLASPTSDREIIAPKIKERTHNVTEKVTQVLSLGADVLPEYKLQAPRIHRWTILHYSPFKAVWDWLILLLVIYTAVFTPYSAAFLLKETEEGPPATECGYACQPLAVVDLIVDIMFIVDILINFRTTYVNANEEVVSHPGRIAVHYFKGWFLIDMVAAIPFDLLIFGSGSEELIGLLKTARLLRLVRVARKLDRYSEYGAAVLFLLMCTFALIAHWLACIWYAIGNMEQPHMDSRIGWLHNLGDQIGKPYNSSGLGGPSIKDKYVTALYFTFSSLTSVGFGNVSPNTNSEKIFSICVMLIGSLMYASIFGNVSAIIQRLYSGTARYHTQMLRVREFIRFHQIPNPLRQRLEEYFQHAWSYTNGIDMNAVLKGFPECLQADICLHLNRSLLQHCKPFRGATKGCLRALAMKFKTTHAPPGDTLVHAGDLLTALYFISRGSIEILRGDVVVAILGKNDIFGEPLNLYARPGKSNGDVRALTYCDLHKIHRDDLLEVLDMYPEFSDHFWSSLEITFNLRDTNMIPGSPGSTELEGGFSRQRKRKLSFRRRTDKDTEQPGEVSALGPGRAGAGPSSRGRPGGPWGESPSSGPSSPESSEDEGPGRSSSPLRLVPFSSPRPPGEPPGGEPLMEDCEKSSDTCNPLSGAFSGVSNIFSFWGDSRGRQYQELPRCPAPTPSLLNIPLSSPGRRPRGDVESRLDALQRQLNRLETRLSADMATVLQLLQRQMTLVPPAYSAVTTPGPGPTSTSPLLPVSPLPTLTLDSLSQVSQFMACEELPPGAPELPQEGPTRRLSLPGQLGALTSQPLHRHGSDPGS

| Structure (SMILES) | hERG current change (%, negative = inhibition) at 1uM [%] |
| --- | --- |
| Cc1nc(SCC(=O)NCc2ccco2)c2c(C)c(C)sc2n1 | 13.8 |
| CC(C)=CC(=O)Nc1ccccc1C(N)=O | 18.1 |
| COC(=O)C1CCN(Cc2cn(-c3ccccc3)nc2-c2ccc3c(c2)OCO3)CC1 | 9.1 |
| COc1ccc(/C=C/C(=O)N2CCCc3ccccc32)c(OC)c1 | 12.3 |
| COc1ccc(NC(=O)c2coc(C)c2)cc1 | 10.4 |
| CC(C)(C)c1ccc(NC(=O)COC(=O)c2ccc(NS(=O)(=O)c3ccc(F)c(F)c3)cc2)cc1 | 17.3 |
| CC(C)CN(C(=O)COC(=O)c1cc2c(s1)CCC2)C1CCS(=O)(=O)C1 (centres unmarked) | 14.8 |
| CCN(CC)c1ccc(/C=C2\C(=O)NC(=O)N(CC3CCCO3)C2=O)cc1 (centres unmarked) | 8.97 |
| Cc1nc(SCc2ccccc2C)n[nH]1 | 10.2 |
| COc1ccccc1CNC(=O)/C=C/c1ccc(S(=O)(=O)N2CCOCC2)cc1 | 6.34 |
| O=c1c(Oc2ccccc2Br)c(C(F)(F)F)oc2c(CN3CCCC3)c(O)ccc12 | 3.14 |
| COc1ccc(OC)c2c1CCC1NCCOC21.Cl (centres unmarked) | 13.9 |
| COc1cc(NC(=O)C2=CC(c3ccc(C)cc3)=NS(=O)(=O)N2C)cc(OC)c1OC | 4.2 |
| Cc1nc2nc(-c3cccnc3)[nH]n2c(=O)c1Cc1ccccc1 | -5.95 |
| CC(C(=O)NCc1ccco1)n1ccc2cc(S(=O)(=O)N3CCCC3)ccc21 (centres unmarked) | 11.8 |
| Cc1cc(OC(=O)c2c(C)cc(OC(=O)c3c(C)cc(O)cc3O)cc2O)cc(O)c1C(=O)O | 12.4 |
| COC(=O)c1cc2ccsc2n1CC(=O)Nc1cc(C)cc(C)c1 | 13.4 |
| Cc1ccc(C(=O)N/C(=C\c2cccs2)C(=O)NC2CCCCC2)cc1 | -6.09 |
| Cc1c(NS(=O)(=O)c2cccc(C(=O)Nc3ccccc3)c2)c(=O)n(-c2ccccc2)n1C | 5.73 |
| O=C(NC1CCCCCC1)C1CCN(S(=O)(=O)c2cccc3cccnc23)CC1 | 7.11 |
| Cc1sc(-n2c(C)cc(C=C3C(=O)NC(=O)NC3=O)c2C)c(C#N)c1C | 11.2 |
| COc1ccc(OC)c(C(=O)COC(=O)CNC(=O)c2ccccc2)c1 | 3.56 |

| Structure (SMILES) | hERG current change (%, negative = inhibition) at 1uM [%] |
| --- | --- |
| COc1ccc(-c2n[nH]c(=S)n2-c2ccc(C)cc2)cc1OC | 14.2 |
| NC(=O)C1CCN(C(=O)CCC(=O)c2ccc(Br)cc2)CC1 | 9.54 |
| O=C1CC(c2ccc(OCCCCCOc3ccc(C4CC(=O)NC4=O)cc3)cc2)C(=O)N1 (centres unmarked) | 5.98 |
| Cc1ccc(N(C)S(=O)(=O)c2cccc(C(=O)Nc3nc4ccccc4[nH]3)c2)cc1 | 4.7 |
| O=c1[nH]ncc2c3ccccc3n(Cc3ccc(F)cc3)c12 | 8.78 |
| CCOC(=O)c1c(NC(=S)Nc2ccc(OCC)cc2)sc2c1CCN(C)C2 | -11 |
| CC(Sc1nnc(C2CC2)n1N)C(=O)NC1CCCCC1C (centres unmarked) | 1.17 |
| CC(NC(=O)CCn1nc(-c2ccc(Cl)cc2)ccc1=O)c1ccccc1 (centres unmarked) | -31.7 |
| CCOC(=O)C1CCN(Cc2ccccc2C(F)(F)F)CC1 | 6.38 |
| CC(=O)CCc1oc2ccc(C)cc2c1-c1ccc(C)o1 | 10.6 |
| CCCn1c(=O)cc(N)n(-c2ccc(OC(F)(F)F)cc2)c1=O | 12.2 |
| Cc1ccc(SCc2cc(=O)[nH]c(N3CCOCC3)n2)cc1 | 7.23 |
| O=C(CNc1cccc(S(=O)(=O)N2CCCCCC2)c1)Nc1cccc([N+](=O)[O-])c1 | -7.36 |
| COC(=O)C1C2c3ccccc3OC1(C)N=c1s/c(=C/c3cnn(C)c3)c(=O)n12 (centres unmarked) | 6.18 |
| CCOC(=O)C1CCCN(C2=NC(=O)/C(=C/c3ccc(N(C)C)cc3)S2)C1 (centres unmarked) | -0.555 |
| CCOC(=O)C1CCN(C(=O)CN(c2ccc(OC)c(OC)c2)S(=O)(=O)c2ccccc2)CC1 | -4.12 |
| Cc1ncoc1C(=O)N1CCc2c([nH]c3ccccc23)C1c1ccccc1F (centres unmarked) | 9.09 |
| COc1cc(C(=O)NNC(=O)Nc2ccc([N+](=O)[O-])cc2)cc(OC)c1OC | 9.17 |
| COc1ccc2oc(C(=O)OCC(=O)N3CCCC(C)C3)c(C)c2c1 (centres unmarked) | 6.03 |
| CSc1ccccc1C(=O)Nc1ccc2c(c1)OCO2 | 7.77 |
| Cc1cccc(Oc2ccc(NS(=O)(=O)c3ccc(C)c(C(=O)O)c3)cc2)c1 | 8.45 |
| C/C(=N\NC(=O)c1ccoc1C)c1ccccc1O | -4.94 |
